About 2,200 (0.71%) of roughly 310,000 compounds showed an effect of 50% or more. The effect is printed as a negative number. The list shows a part of the results.

human ether-à-go-go-related gene (hERG) potassium channel, sequence (Q12809 whole entry, looked up): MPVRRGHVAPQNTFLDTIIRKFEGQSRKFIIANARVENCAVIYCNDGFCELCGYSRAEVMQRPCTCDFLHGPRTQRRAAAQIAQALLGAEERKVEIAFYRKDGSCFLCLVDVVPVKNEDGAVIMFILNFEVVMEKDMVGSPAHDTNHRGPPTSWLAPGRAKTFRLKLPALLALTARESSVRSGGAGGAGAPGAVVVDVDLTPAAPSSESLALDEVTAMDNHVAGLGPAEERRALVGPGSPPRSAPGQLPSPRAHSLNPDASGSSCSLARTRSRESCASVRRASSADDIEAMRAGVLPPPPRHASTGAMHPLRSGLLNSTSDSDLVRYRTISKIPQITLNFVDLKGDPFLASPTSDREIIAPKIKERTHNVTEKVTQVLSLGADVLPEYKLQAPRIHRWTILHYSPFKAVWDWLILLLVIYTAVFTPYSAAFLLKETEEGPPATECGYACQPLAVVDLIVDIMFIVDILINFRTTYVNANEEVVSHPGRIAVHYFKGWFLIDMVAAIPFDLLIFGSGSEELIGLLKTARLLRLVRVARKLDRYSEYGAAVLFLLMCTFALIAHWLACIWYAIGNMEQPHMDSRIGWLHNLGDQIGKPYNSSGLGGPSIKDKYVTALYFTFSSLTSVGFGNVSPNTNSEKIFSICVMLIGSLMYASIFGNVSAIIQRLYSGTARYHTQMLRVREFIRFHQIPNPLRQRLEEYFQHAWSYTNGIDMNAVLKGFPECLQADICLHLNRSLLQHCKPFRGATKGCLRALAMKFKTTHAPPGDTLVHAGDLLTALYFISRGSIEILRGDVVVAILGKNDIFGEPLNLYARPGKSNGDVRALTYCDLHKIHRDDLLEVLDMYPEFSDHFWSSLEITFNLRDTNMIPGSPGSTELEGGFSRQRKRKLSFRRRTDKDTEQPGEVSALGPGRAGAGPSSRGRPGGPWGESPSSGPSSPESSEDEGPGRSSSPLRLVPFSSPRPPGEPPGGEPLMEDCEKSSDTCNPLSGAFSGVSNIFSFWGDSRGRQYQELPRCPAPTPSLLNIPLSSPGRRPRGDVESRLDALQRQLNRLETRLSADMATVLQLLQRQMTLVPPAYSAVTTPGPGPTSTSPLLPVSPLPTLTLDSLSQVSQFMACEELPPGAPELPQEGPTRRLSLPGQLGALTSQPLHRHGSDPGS

The experiment has as its target human ether-à-go-go-related gene (hERG) potassium channel (human, UniProt Q12809). Nature of the experiment: primary screen, population patch clamp on CHO cells stably expressing hERG.
For `CCOc1ccc(C(=O)COC(=O)Cn2cnc3c2c(=O)n(C)c(=O)n3C)cc1`, the “hERG current change (%, negative = inhibition) at 1uM” value is on record as 1.97%.
Take `COc1cc2c(cc1OC)CN(c1nc(CN3CCCCC3)nc3sc4c(c13)CCCC4)CC2`: the “hERG current change (%, negative = inhibition) at 1uM” value is on record as -57.3%.
With `O=C(NCCN1CCN(c2cccc(Cl)c2)CC1)c1ccc(CSc2nc3ccncc3[nH]2)cc1`, the “hERG current change (%, negative = inhibition) at 1uM” value was found to be 14.7%.
Turning to `O=C(N[C@@H](Cc1ccc(Br)cc1)C(=O)O)OCC1c2ccccc2-c2ccccc21`, the “hERG current change (%, negative = inhibition) at 1uM” value was found to be 6.58%.
Consider `CCOC(=O)c1sc2nc3c(cc2c1N)C(=O)CC(C)(C)C3`, for which the “hERG current change (%, negative = inhibition) at 1uM” value is on record as 14.2%.
Take `COc1ccc(OC)c(C2C(C#N)=C(N)Oc3cc(C)n(Cc4ccccn4)c(=O)c32)c1` (centres unmarked): the “hERG current change (%, negative = inhibition) at 1uM” value is -0.578%.
Turning to `COC(=O)CC1SC(=O)NC1=O` (centres unmarked), the “hERG current change (%, negative = inhibition) at 1uM” value is recorded as 1.98%.
The figure for `COc1ccc(S(=O)(=O)N(C)C)cc1NC(=O)COC(=O)CC1CCCC1` is -49.5%; for `COc1c(S(=O)(=O)N2CCCC2)ccc(Cl)c1Cl` it is 3.45%; for `FC(F)(F)c1ccc(Cl)c(-n2c(Cc3cccs3)n[nH]c2=S)c1` it is 12.2%.
For `Cc1nc(Cl)sc1C(=O)Nc1cc(F)cc(F)c1`, the “hERG current change (%, negative = inhibition) at 1uM” value turned out to be 12.7%.
As to `CCOc1ccc(C2=Nn3c(nnc3-c3cccnc3)SC2)cc1`, the “hERG current change (%, negative = inhibition) at 1uM” value is recorded as -8.03%.
Take `Oc1ccc(Cl)cc1C1=NNC(c2cc(Br)cc3c2OCOC3)C1` (centres unmarked): the “hERG current change (%, negative = inhibition) at 1uM” value came to 16.8%.
Take `COc1cc(-c2n[nH]c(=S)n2-c2cc(C(F)(F)F)ccc2Cl)cc(OC)c1OC`: the “hERG current change (%, negative = inhibition) at 1uM” value was 2.87%.
The figure for `C1CCC2(CC1)OCC1(CO2)COC2(CCCCC2)OC1` is 5.39%.
Turning to `Cc1cccc2cc(/C=N/NC(=O)c3ccncc3)c(Cl)nc12`, the “hERG current change (%, negative = inhibition) at 1uM” value was determined as 16.3%.
Consider `CCOc1ccc(C2C(C(=O)/C=C/c3ccco3)=C(O)C(=O)N2CCN2CCOCC2)cc1OC` (centres unmarked), for which the “hERG current change (%, negative = inhibition) at 1uM” value is -0.804%.
As to `O=c1[nH]ncn1-c1ccccc1`, the “hERG current change (%, negative = inhibition) at 1uM” value is on record as 12.3%.
Consider `O=C(Nc1ccc(C2CCCCC2)cc1)C1CCN(c2ncccn2)CC1`, for which the “hERG current change (%, negative = inhibition) at 1uM” value is recorded as 16%.
The figure for `C=CCN1C(=O)C(Cc2ccc(SC(F)F)cc2)SC1=Nc1ccc(C(=O)O)cc1` (centres unmarked) is 9.93%; for `COc1cc(OC)c(/C=N/NC(N)=S)cc1Br` it is 5.21%; for `Cc1ccc(CNC(=O)c2nccnc2C(=O)O)cc1` it is 12%.
The figure for `CCOC(=O)c1cnn(-c2ccc([N+](=O)[O-])cc2)c1N` is 7.29%.
Consider `Cc1ccc(NC(=O)Cn2c(=O)oc3cc(S(=O)(=O)N4CCC(C)CC4)ccc32)cc1C`, for which the “hERG current change (%, negative = inhibition) at 1uM” value was -4.29%.
Consider `CCCCn1c(C2CCCCC2)nc2cc3[nH]c(=O)c(C(C)C)nc3cc21`, for which the “hERG current change (%, negative = inhibition) at 1uM” value is 6.5%.
Take `CN(C)/C=C(\C(=O)c1ccccc1)c1nnnn1-c1ccc(F)cc1`: the “hERG current change (%, negative = inhibition) at 1uM” value is 16.3%.
The figure for `Cc1csc(N2CCCC2=O)n1` is 8.64%; for `Cn1c(Cn2c(=O)sc3ccccc32)nnc1SCC(=O)Nc1ccc(Cl)cc1` it is 2.68%; for `CC(=O)Nc1cccc(/C(C)=N/NC(=O)c2ccc(CN3CCOCC3)cc2)c1` it is 11.5%.
Turning to `Cc1cccc(NC(=O)c2ccc(F)c(S(=O)(=O)N3CCC4(CC3)OCCO4)c2)c1`, the “hERG current change (%, negative = inhibition) at 1uM” value turned out to be 5.02%.
Take `Cc1cccc(NC(=S)N(Cc2cccs2)Cc2cc3cc(C)cc(C)c3[nH]c2=O)c1`: the “hERG current change (%, negative = inhibition) at 1uM” value was 19.3%.
The figure for `O=C(CSc1nc2ccccc2[nH]1)Nc1ccccc1N1CCOCC1` is -0.458%; for `COc1ccc(-c2cc(C)no2)cc1S(=O)(=O)N1CCCN(Cc2ccc(F)cc2)C1` it is 19%.
With `CCOc1ccccc1CN1CCNC(=O)C1CC(=O)NCc1nccn1CC` (centres unmarked), the “hERG current change (%, negative = inhibition) at 1uM” value turned out to be 18.8%.
The figure for `COc1ccccc1OC(C)C(=O)Nc1ccc(S(=O)(=O)N2CCN(C)CC2)cc1` (centres unmarked) is 7.42%; for `O=[N+]([O-])c1cc(Cl)ccc1-c1nc(-c2ccccc2)no1` it is 16.9%; for `CCN1CCCC1CNC(=O)Cn1cccc1C(=O)c1ccccc1` (centres unmarked) it is 6.82%.
Take `Cc1cccc2c1N(CCOc1ccccc1)C(=O)C2=O`: the “hERG current change (%, negative = inhibition) at 1uM” value was 12.2%.
The figure for `COC(=O)c1ccc(-n2c(CCC(=O)O)ccc2-c2ccccc2)cc1` is 11.6%; for `Cc1ccccc1C(=O)N1CCC(C(=O)NC2CCCCCC2)CC1` it is 23.5%.
Take `COc1cc(NS(=O)(=O)c2ccc(NC(=O)c3ccc(F)cc3)cc2)ncn1`: the “hERG current change (%, negative = inhibition) at 1uM” value was 3.24%.
Turning to `CC(C)(C)NC(=O)C(=O)NNC(=O)COc1ccc(Br)cc1`, the “hERG current change (%, negative = inhibition) at 1uM” value is reported as 1.7%.
The figure for `CCOc1ccc(S(=O)(=O)NCc2ccccc2OC)cc1` is 6.1%; for `Cc1sc2ncnc(NCC(O)c3ccc([N+](=O)[O-])cc3)c2c1C` (centres unmarked) it is -17.1%; for `COc1ccc(S(=O)(=O)N(C)C)cc1NC(=O)CSc1nc(N)cc(N)n1` it is 14.9%.
For `CCN1CCCc2cc(CN(CCN3CCOCC3)C(=S)Nc3ccc(OC)cc3)ccc21`, the “hERG current change (%, negative = inhibition) at 1uM” value is 7.88%.
With `C=CCNC(=O)c1cc(-c2ccncc2)nc2c(C)cc(C)cc12`, the “hERG current change (%, negative = inhibition) at 1uM” value is -14.8%.
On to `CCOc1cc(C(=O)N(C)c2ccccc2)cc(OCC)c1OCC`, for which the “hERG current change (%, negative = inhibition) at 1uM” value was -5.38%.
As to `COc1cc(NC(=O)Cn2cnc3sc(C)c(S(=O)(=O)N4CCOCC4)c3c2=O)cc(OC)c1OC`, the “hERG current change (%, negative = inhibition) at 1uM” value stood at 28.5%.
The figure for `CCc1ccnc(NC(=O)Nc2ccc(OCc3ccccc3)cc2)c1` is 14.2%.
As to `Cc1ccc(-n2c(C)cc(C(=O)CN3CCOCC3)c2C)cc1C`, the “hERG current change (%, negative = inhibition) at 1uM” value is on record as 12.9%.
Turning to `Cc1ccc(S(=O)(=O)Nc2ccc(N3CCOCC3)nc2)cc1`, the “hERG current change (%, negative = inhibition) at 1uM” value was 11.5%.
As to `CC1CCc2nc(NC(=O)Nc3ccc4c(c3)OCO4)sc2C1` (centres unmarked), the “hERG current change (%, negative = inhibition) at 1uM” value is on record as 9.77%.
Regarding `CCOc1cc(CNC(=O)CCCn2c(=O)c3cccn3c3cccnc32)cc(OCC)c1OCC`, the “hERG current change (%, negative = inhibition) at 1uM” value is recorded as -1.07%.
As for `CCc1cccc(NC(=O)C2CCN(S(=O)(=O)c3ccc4c(c3)CC(C)N4C(C)=O)CC2)c1` (centres unmarked), the “hERG current change (%, negative = inhibition) at 1uM” value was determined as 9.86%.
In the case of `Cc1cc(NC(=O)CCC(=O)N(CC(=O)NC2CCCC2)c2cccc(F)c2)no1`, the “hERG current change (%, negative = inhibition) at 1uM” value came out at 7.59%.

The record behind these values is publication PMC4336329 (PLoS ONE, 2015).
